Measured values taken from PubChem BioAssay AID485294 (National Center for Advancing Translational Sciences (NCATS), 2010).
Screen size: about 370,000 compounds; about 150 (0.041%) were called active. The shares of active, inactive and inconclusive entries below differ from those in the screen. Calls come from the whole dose curve; as a rule, active = well fitted inhibition curve with a large enough effect; inconclusive = small, poorly fitted or top-dose-only effect; inactive = flat fitted curve, though single readings scatter. Potencies of inconclusive entries are left out as doubtful fits.

Each compound was assayed against Beta-lactamase (Escherichia coli (strain K12)) (UniProt P00811) (assay: qHTS Inhibitors of AmpC Beta-Lactamase (assay with detergent)). Details: AmpC hydrolysis of nitrocefin, absorbance 480 nm, 0.01% Triton; activity change, negative = inhibition: at 114 µM (top of the series).
How it was run: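 AmpC (5.3 nM in the dispensed reagent) in 20 mM phosphate pH 7.0 with 0.01% (detergent screen) or 0.0001% Triton X-100 was preincubated with compounds for 15 min at room temperature. Nitrocefin was then added from an 800 uM solution, and hydrolysis was followed at 480 nm.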
Note: nearly all actives have a fitted effect of over 25% in size.
Potency is the fitted concentration of half-maximal effect; tags give direction and shape of the fitted curve.
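Throughout, for activity change, negative = inhibition: 0% = no-compound wells and -100% = no-enzyme wells.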

UniProt P00811, sequence (P00811 whole entry, looked up): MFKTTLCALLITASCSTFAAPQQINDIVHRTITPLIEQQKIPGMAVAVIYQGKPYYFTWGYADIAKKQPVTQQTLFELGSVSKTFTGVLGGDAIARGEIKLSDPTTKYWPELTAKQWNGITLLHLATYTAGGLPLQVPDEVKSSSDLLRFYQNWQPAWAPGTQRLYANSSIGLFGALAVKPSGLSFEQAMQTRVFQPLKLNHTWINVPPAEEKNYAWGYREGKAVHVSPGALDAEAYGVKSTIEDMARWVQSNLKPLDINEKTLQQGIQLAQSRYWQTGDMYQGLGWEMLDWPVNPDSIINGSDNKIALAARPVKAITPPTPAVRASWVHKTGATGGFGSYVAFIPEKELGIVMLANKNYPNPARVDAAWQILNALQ

| SMILES | Potency | activity change, negative = inhibition |
| --- | --- | --- |
| CNC(=O)c1cc2cccc(OC)c2oc1=O | inconclusive [inhibitor, full curve, poor fit] |  |
| COc1ccc(CC(=O)OCC(=O)NC(=O)Nc2ccccc2F)cc1 | inconclusive [inhibitor, full curve, poor fit] |  |
| Oc1c(C(c2ccccc2)N2CCN(Cc3ccccc3)CC2)sc2ncnn12 (stereo not drawn) | inconclusive [inhibitor, partial curve, poor fit] |  |
| CSC1=N/C(=C\c2cccnc2)C(=O)N1c1ccccc1 | inconclusive [inhibitor, partial curve, poor fit] |  |
| Cc1ccc2c(C(=O)CN3CCOCC3)c(C)[nH]c2c1 |  | inactive: -2.19% |
| Cc1ccc([N+](=O)[O-])cc1NC(=O)c1cccnc1 | inconclusive [inhibitor, partial curve, poor fit] |  |
| CC(NC(=O)c1ccco1)c1cccc2ccccc12 (stereo not drawn) | inconclusive [inhibitor, partial curve, poor fit] |  |
| O=C(NCCCc1nc2ccccc2[nH]1)c1cccs1 |  | inactive: -12.2% |
| COc1ccc(CCNC(=O)C2CCCN2C(=O)Nc2cccc(C(C)=O)c2)cc1OC (stereo not drawn) | inconclusive [inhibitor, full curve, poor fit] |  |
| COc1ccc(C2CC(O)(c3ccccc3)Oc3c(C)ccc(C)c32)cc1 (stereo not drawn) |  | inactive: 7.58% |
| Cc1cc(N2CCN(C)CC2)nc2ccc(NC(=O)Nc3ccc(Cl)cc3)cc12 |  | inactive: 16.6% |
| CCOc1cc(CNCCc2c[nH]c3ccccc23)cc(Cl)c1OCC |  | inactive: -6.52% |
| COc1ccc(C(=O)OCC(=O)Nc2ccc(Cl)c(C(F)(F)F)c2)c(OC)c1OC |  | inactive: -4.06% |
| COC(=O)C(N)Cc1ccc(Cl)cc1 (stereo not drawn) |  | inactive: -17.5% |
| Cc1ccc(NC(=O)CN2C(=O)N/C(=C\c3cccnc3)C2=O)cc1 |  | inactive: 4.08% |
| CCOc1ccc(CNC(=O)CCn2c(=O)c3cccn3c3cccnc32)cc1 |  | inactive: 1.74% |
| O=C(NC(=S)Nc1ccccc1N1CCCC1)c1ccc(F)cc1 | inconclusive [inhibitor, full curve, poor fit] |  |
| CCCCn1c(NS(=O)(=O)c2ccccc2)c(C(=O)OCC)c2nc3ccccc3nc21 |  | inactive: -4.45% |
| Cc1ccc(Cn2nnnc2CN2CCC(NC(=O)c3ccc(Br)cc3)CC2)cc1 | inconclusive [inhibitor, partial curve] |  |
| CCOC(=O)c1c(C)[nH]c(C)c1C(=O)CSc1nc2ccccc2c(=O)n1-c1ccc(CC)cc1 |  | inactive: 1.12% |
| Cc1cccc(NC(=O)CNC(=O)c2ccco2)n1 | inconclusive [inhibitor, full curve, poor fit] |  |
| COc1ccc(-n2c3nc4ccccc4nc3c3c(=N)oc(C)nc32)cc1 | inconclusive [inhibitor, single point] |  |
| CC(NC(=O)CNC(=O)c1ccccc1Br)c1cccs1 (stereo not drawn) | inconclusive [inhibitor, full curve, poor fit] |  |
| C/C(=N\OCC(=O)Nn1c(C)nc2ccccc2c1=O)c1ccccc1 | inconclusive [inhibitor, single point] |  |
| C(/C=C/c1ccco1)=N/N1CCN(c2ccccc2)CC1 |  | inactive: 4.01% |

| SMILES | Potency | activity change, negative = inhibition |
| --- | --- | --- |
| CCn1c(SCC(=O)Nc2sc3c(c2C#N)CCCC3)nnc1-c1ccco1 |  | inactive: -6.97% |
| Cc1cccc2sc(NNC(=O)C3COc4ccccc4O3)nc12 (stereo not drawn) | inconclusive [inhibitor, full curve, poor fit] |  |
| CCc1ccc(OCC(=O)NC2CC(C)(C)NC(C)(C)C2)cc1 |  | inactive: -13.9% |
| CC(=NCc1ccco1)c1c(O)n(Cc2ccccc2)c(=O)[nH]c1=O | inconclusive [inhibitor, partial curve, poor fit] |  |
| CN(Cc1cnn(Cc2ccccc2)c1)C(=O)CN=C1NS(=O)(=O)c2ccccc21 |  | inactive: 3.63% |
| Cc1ccc(S(=O)(=O)/N=C2/NC(=O)/C(=C\c3cc(Br)cc(Br)c3O)S2)cc1 |  | inactive: 8.73% |
| COc1ccc(C)cc1NC(=O)c1cc2c(CO)cnc(C)c2oc1=N | inconclusive [inhibitor, partial curve, poor fit] |  |
| O=[N+]([O-])c1cc(C(F)(F)F)ccc1SCC(O)CO (stereo not drawn) | inconclusive [inhibitor, full curve, poor fit] |  |
| C=C(C)CNC(=O)c1ccc(OC2CCN(S(=O)(=O)N(C)C)CC2)cc1 |  | inactive: 7.96% |
| O=C(NC(NC(=S)N1CCOCC1)C(Cl)(Cl)Cl)c1ccc(Cl)cc1 (stereo not drawn) | inconclusive [inhibitor, full curve, poor fit] |  |
| CC(Nc1cccc([N+](=O)[O-])c1)C(=O)Nc1ccc(S(=O)(=O)N2CCCC2)cc1 (stereo not drawn) | inconclusive [inhibitor, partial curve] |  |
| CCOc1cccc(CC(=O)N2CCc3c([nH]c4ccccc34)C2c2ccc(C)cc2)c1OCC (stereo not drawn) |  | inactive: -0.189% |
| COc1ccc(C(=O)Nc2ccc3c(c2)N(C2CCCC2)C(=O)c2ccccc2S3)cc1OC |  | inactive: 3.76% |
| COc1cc(C(=O)Nc2ccc(Cl)c(-c3nc4ncccc4o3)c2)cc(OC)c1OC |  | inactive: 8.91% |
| O=C(Nc1ccccc1-c1ccccc1)c1cnccn1 | inconclusive [inhibitor, full curve, poor fit] |  |
| CCc1ccccc1NC(=O)c1ccoc1C | inconclusive [inhibitor, full curve, poor fit] |  |
| CC(C)(C)NC(=O)C(c1ccncc1)N(C(=O)Cn1nnc(-c2ccc(F)cc2)n1)c1cccc(F)c1 (stereo not drawn) |  | inactive: -0.477% |
| O=C(Cc1c(F)cccc1Cl)Nc1nccs1 |  | inactive: -14.4% |
| COc1cccc(C(=O)N2C[C@H]3C[C@@H](C2)c2cccc(=O)n2C3)c1 | inconclusive [inhibitor, single point] |  |
| COc1ccc(C(=O)N/N=C/c2ccc(OC)c(OS(=O)(=O)c3ccccc3)c2)cc1 |  | inactive: -6.6% |
| O=C(COCc1nc2ccccc2c(=O)[nH]1)NCC1CCCCC1 | inconclusive [inhibitor, single point] |  |
| CC(C)(C)c1cc(C(=O)N/N=C/c2ccccc2O)n(-c2ccccc2)n1 |  | inactive: 0.786% |
| COc1ccccc1C(c1nnnn1Cc1ccccc1)N1CCN(C2CCCC2)CC1 (stereo not drawn) | inconclusive [inhibitor, single point] |  |
| Cc1nn2c(=O)c(NC(=O)c3ccc(Cl)cc3)cnc2s1 | inconclusive [inhibitor, full curve, poor fit] |  |
| CC(C)(C)c1ccc(OCC(O)CN2CCN(C(=O)c3ccccc3)CC2)cc1 (stereo not drawn) |  | inactive: 2.6% |

| SMILES | Potency | activity change, negative = inhibition |
| --- | --- | --- |
| O=C(CCC1CCCN(C(=O)c2ccc3cc[nH]c3c2)C1)NCc1ccc(F)c(F)c1 (stereo not drawn) |  | inactive: 4.6% |
| Cc1cc(Nc2ccccc2Cl)n2nc(-c3ccco3)nc2n1 |  | inactive: 1.44% |
| COc1ccc(OC)c(NC(=O)c2c(NCc3ccc(C)o3)sc3c2CCCCC3)c1 |  | inactive: 2.27% |
| COc1ccc(CCNCc2ccccn2)cc1OC | inconclusive [inhibitor, full curve, poor fit] |  |
| Cc1ccc2nc(Nc3ccccc3)cc(C)c2c1 | inconclusive [inhibitor, full curve, poor fit] |  |
| C/C(=N\NC(=S)NC(C)C)c1ccccc1 | inconclusive [inhibitor, single point] |  |
| COc1cccc(OCC(=O)Nc2cc(NC(=O)COc3cccc(OC)c3)cc(C(=O)O)c2)c1 | inconclusive [inhibitor, full curve, poor fit] |  |
| COC(=O)[C@H]1C2CCC(C(=O)OC)(CC2)[C@H]1C(=O)OC | inconclusive [inhibitor, full curve, poor fit] |  |
| C=C(C)C(=O)Nc1ccc(NC(C)C)cc1 | inconclusive [inhibitor, partial curve] |  |
| O=C(CSc1nc(=O)n2ccccc2n1)NCc1ccccc1 | inconclusive [inhibitor, full curve, poor fit] |  |
| CC(=O)Nc1ccc(NC(C)=C(C#N)C#N)cc1 | inconclusive [inhibitor, partial curve] |  |
| CSc1ccc(/C=C/c2ccc3cccc(O)c3n2)cc1 |  | inactive: 6.23% |
| COC(=O)C(C)Sc1nnc(Cc2cc(=O)[nH]c(=O)[nH]2)n1-c1ccc(OC)cc1 (stereo not drawn) | inconclusive [inhibitor, full curve, poor fit] |  |
| O=C(Cc1ccsc1)N1CCN(S(=O)(=O)c2cccc(F)c2)CC1 | inconclusive [inhibitor, single point] |  |
| CCOc1ccc(NC(=S)N(C)C)cc1 |  | inactive: -6.49% |
| CCn1c(=O)c2sccc2n2c(CCCC(=O)N3CCN(c4cc(C)ccc4C)CC3)nnc12 |  | inactive: 11.8% |
| CCn1c(-c2cc(OC)c(OC)c(OC)c2)n[nH]c1=S | inconclusive [inhibitor, full curve, poor fit] |  |
| COC(=O)c1cnc(NNC(=O)c2ccc([N+](=O)[O-])cc2)nc1C(F)(F)F | inconclusive [inhibitor, single point] |  |
| CS(=O)(=O)NCc1nnc(SCC(=O)NC2CCCCC2)n1-c1ccc(F)cc1 | inconclusive [inhibitor, single point] |  |
| Cc1csc2nc(CSc3nc4ccccc4o3)c(Br)n12 |  | inactive: 1.34% |
| Cc1c(C(=O)NCCc2ccccc2)cccc1-n1cnc2cccnc21 |  | inactive: 0.26% |
| O=C(ON=C1CCN(S(=O)(=O)c2ccccc2)CC1)c1ccc(Cl)cc1 | inconclusive [inhibitor, full curve, poor fit] |  |
| Cc1ccsc1/C=N/NC(=O)C1CC(=O)N(c2ccccc2)C1 (stereo not drawn) | inconclusive [inhibitor, full curve] |  |
